Measurements from PubChem BioAssay AID1347417 (National Center for Advancing Translational Sciences (NCATS), 2020).
The campaign covered roughly 120,000 compounds. About 5,300 (4.4%) were called active. This list was built around the results that the source calls inconclusive (neither active nor inactive); the mix of calls is not that of the screen. The call rests on the fitted dose curve; in most records, active means well fitted inhibition curve with a large enough effect; inconclusive means small, poorly fitted or top-dose-only effect; inactive means no such curve, though single readings can be large or run the other way. Where the call is inconclusive, the potency comes from a doubtful curve fit.

Assay: qHTS Primary assay for Inhibitors of Plasmodium falciparum Dd2 growth in vitro; further: nearly all actives have a fitted effect of over 65% in size;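 on activity, negative = inhibition: plate controls were DMSO vehicle for no effect and reference drug for full effect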
Conditions: P. falciparum Dd2 growth, SYBR Green, 72 h; activity, negative = inhibition: at 28.9 µM (top of the series) unless noted; series mostly up to 28.9 µM
Outline: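 Infected erythrocytes (Dd2, 0.3% parasitemia, 2.5% hematocrit final) are added to compound in RPMI-1640/Albumax II medium, grown 72 h at 37C in low oxygen, then lysed with saponin/Triton-X containing SYBR Green and read by fluorescence.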
Potency means the concentration at half of the fitted maximal effect; tags describe the fitted curve by direction and shape.

Compound | outcome | Potency | activity, negative = inhibition
C=CCNC(=O)C(NC(=O)c1cccs1)C1CCN(C(=O)c2ccc(F)cc2)CC1 (configuration not stated) | inactive | – | –
CCN(CC)C(=O)c1sc2c(c1C)c(=O)n(-c1ccc(Cl)c(Cl)c1)c(=O)n2CC(=O)Nc1cccc(OC)c1 | – | inconclusive: 3.55 µM [inhibitor, full curve, poor fit] | –
Cc1cc(C)n(CCCN(C)Cc2cc3n(n2)CCNC3)n1 | – | – | inactive: 2.5%
CN(Cc1ccccc1)Cc1nc2c(n1Cc1ccccc1)C(=O)N(Cc1ccccc1F)CCN2 | – | inconclusive: 3.55 µM [inhibitor, partial curve] | –
CCN1CCC2(CC1)Cc1ccccc1CN(S(=O)(=O)c1ccccc1)C2 | – | inconclusive: 6.31 µM [inhibitor, partial curve] | –
CN(C)c1ccc(C(=O)N2CCN3C(=O)N(CC(N)=O)C(=O)[C@@H]3C2)cc1 | – | – | inactive: -11.8% [at 44.1 µM]
OCC1(CCCc2ccccc2)CCN(Cc2ccc(-n3cccn3)cc2)CC1 | – | active: 4.47 µM | –
O=C(Nc1ccccc1F)c1ccc(-c2ccccc2)s1 | – | inconclusive: 17.8 µM [inhibitor, single point] | –
Cc1ccc(CN2CCCC3(Cc4ccccc4CNC3=O)C2)cc1 (configuration not stated) | – | inconclusive: 5.62 µM [inhibitor, partial curve] | –
COc1ccc(-c2cc(CC3(NCc4ccc(C)o4)COC3)no2)cc1 | – | inconclusive: 12.6 µM [inhibitor, partial curve] | –
COc1cc2c(cc1Oc1ccccc1)NC(=O)C21CCN(c2cnccn2)CC1 | – | inconclusive: 0.501 µM [inhibitor, full curve, poor fit] | –
CS(=O)(=O)c1ccc(CC(=O)N[C@@H]2COCC[C@@H]2OCC2CC2)cc1 | – | – | inactive: 3.18%
CCC1CCCCN1CCCNC(=O)c1cc2c(=O)n(CC)c3ccccc3c2s1 (configuration not stated) | – | inconclusive: 3.98 µM [inhibitor, single point] | –
COc1ccc(-c2[nH]nc3ncc(-c4ccc(CO)cc4)nc23)cc1F | – | inconclusive: 0.562 µM [inhibitor, partial curve, poor fit] | –
O=C(NCC(c1cccnc1)N1CCc2ccccc2C1)C(=O)Nc1ccccc1 (configuration not stated) | – | inconclusive: 17.8 µM [inhibitor, single point] | –
CCN1c2cc(C(=O)NCc3ccc(OC)cc3)ccc2C(=O)N2CCCCC21 (configuration not stated) | – | inconclusive: 1.58 µM [inhibitor, partial curve, poor fit] | –
Cc1cnc(CC2CCCN(S(=O)(=O)c3ccccc3)C2)n1CC1CC1 (configuration not stated) | – | inconclusive: 1.12 µM [inhibitor, partial curve] | –
COc1ccc(F)cc1S(=O)(=O)N1C[C@@H](F)C[C@H]1C(=O)N1CCc2ccccc2C1 | inactive | – | –
N#Cc1ccc(CN2CC3(C2)NC(=O)c2ccccc2O3)cc1 | inactive [at 44.1 µM] | – | –
Cc1cc2ncc(C(=O)N3CCC4(CC(=O)NC4=O)C3)c(=O)n2[nH]1 (configuration not stated) | – | – | inactive: -0.0777%
Cc1nc(-c2c3n(c(=O)n(CC(=O)NC4CCCCC4)c2=O)CCCC3)no1 | – | – | inactive: -20.9%
CC1CCN(S(=O)(=O)c2ccc3nc(Nc4ccc(C#N)cc4)ccc3c2)CC1 | – | inconclusive: 11.2 µM [inhibitor, single point] | –
O=C(NCc1ccccc1)N1CCCC(c2nc(CCOc3ccc(F)cc3)no2)C1 (configuration not stated) | inactive | – | –

Compound | outcome | Potency | activity, negative = inhibition
Cc1noc(-c2ccn3c(CNC(=O)c4ccc5ccccc5n4)nnc3c2)n1 | inactive | – | –
COc1cncc(CN2CCC3(CC2)C(=O)Nc2cc(OC4CCCC4)c(OC)cc23)c1 | – | inconclusive: 10 µM [inhibitor, partial curve, poor fit] | –
O=C1NCCCC[C@@H]1NCc1ccccc1OCCCCN1CCOCC1 | – | inconclusive: 17.8 µM [inhibitor, single point] | –
O=C(C1CCCC1)N1Cc2ccccc2CC2(CCN(CC3CCOCC3)C2)C1 (configuration not stated) | – | active: 7.08 µM | –
CCOC(=O)c1c(Nc2cc(C)cc(C)c2)nnc(-c2ccccc2)c1-c1ccccc1 | – | inconclusive: 15.8 µM [inhibitor, single point] | –
CN(CCc1ccccn1)[C@@H]1[C@H](O)[C@H](CO)O[C@@H]1CN(Cc1ccc(F)cc1)Cc1ccc(F)cc1 | – | inconclusive: 2.51 µM [inhibitor, full curve, poor fit] | –
CCn1ccc(C(=O)N2CCCC(CN3CCC(C)CC3)CC2)n1 (configuration not stated) | inactive | – | –
Cc1cccc(CN2CCNc3cnc(OCc4cccnc4)cc3C2)c1 | – | inconclusive: 15.8 µM [inhibitor, single point] | –
CCOc1ccc(NS(=O)(=O)c2ccc3[nH]cc(C(=O)NCc4ccccc4)c(=O)c3c2)cc1 | – | inconclusive: 10 µM [inhibitor, single point] | –
c1cc(N2CCOCC2)ncc1-c1noc([C@@H]2CCCN2C2CCOCC2)n1 | – | inconclusive: 2.51 µM [inhibitor, full curve, poor fit] | –
O=C(NC1CCCC1)N1CCCC(c2noc(COc3ccccc3)n2)C1 (configuration not stated) | – | inconclusive: 8.91 µM [inhibitor, single point] | –
O=C(c1ccc2c(c1)N(Cc1c(F)cccc1Cl)C(=O)c1ccccc1S2)N1CCC2(CC1)OCCO2 | – | active: 10 µM | –
COc1ccc(C(=O)N2CCCC3(CNc4ccccc4[S+](=O)([O-])N3)C2)cc1 (configuration not stated) | – | – | inactive: 6.33%
Cc1ccsc1C(=O)N1CCN(C(=O)c2nnn3c2COC(c2ccc(Cl)cc2)C3)CC1 (configuration not stated) | – | inconclusive: 3.98 µM [inhibitor, single point] | –
CN(C)c1ccc(C(=O)N2CCN(C(=O)c3ccc(N(C)C)cc3)[C@H](C(=O)N[C@H](Cc3c[nH]c4ccccc34)C(N)=O)C2)cc1 | – | inconclusive: 20 µM [inhibitor, partial curve, poor fit] | –
O=C(NCC(c1cccnc1)N1CCN(Cc2ccccc2)CC1)C(=O)Nc1ccc(Cl)cc1 (configuration not stated) | – | active: 14.1 µM | –
COc1ccc(N2CC(C(=O)N(C)CCc3noc(C)n3)CC2=O)cc1Cl (configuration not stated) | – | – | inactive: 4.31%
COc1ccc(C(=O)N2CC(Oc3ccc(-c4nc(-c5ccccc5)no4)cc3)C2)cc1 | – | – | inactive: 47.9% [at 5.79 µM]
O=C(c1nnc(COc2ccc(F)c(F)c2)n1-c1ccccc1)N1CCC[C@@H]1c1cccc(F)c1 | inactive | – | –
Cn1cc(CN2CCn3c(nnc3[C@@H]3C[C@@H](O)CN3Cc3cccnc3)C2)c2ccccc21 | – | – | inactive: -25.8%
c1ccc(CC2=NOC3(CCN(Cc4c[nH]c5ccccc45)CC3)C2)cc1 | – | active: 12.6 µM | –
Cc1cc(C)n2nc(C(=O)N3CCN4C(=O)CN(C)C(=O)C4C3)cc2n1 (configuration not stated) | – | inconclusive: 0.112 µM [inhibitor, full curve, poor fit] | –
O=C(NC1CC1)c1ccn2nccc2c1 | – | – | inactive: 18% [at 44.1 µM]

Compound | outcome | Potency | activity, negative = inhibition
COCc1ccc2c(c1)c(OC(C)(C)C(=O)N1CCN(C)CC1)nn2CCC(C)C | – | inconclusive: 2.51 µM [inhibitor, partial curve, poor fit] | –
COc1ccc(C(=O)N2[C@H]3CC[C@@H]2c2cnc(-c4ccccc4)nc2C3)c(OC)c1 | – | inconclusive: 12.6 µM [inhibitor, partial curve, poor fit] | –
COc1ccc(OC)c(NC(=O)c2c(NCc3ccc(C)o3)sc3c2CCC(C)C3)c1 (configuration not stated) | – | active: 11.2 µM | –
CCc1noc(-c2cccn3c(CNC(=O)c4ccccc4F)nnc23)n1 | – | inconclusive: 0.251 µM [inhibitor, full curve] | –
COc1ccc(NC(=O)O[C@@H]2CO[C@H]3[C@@H]2OC[C@@H]3NS(=O)(=O)Cc2ccccc2)cc1 | – | – | inactive: -3.58%
COCCOCc1nc(C2CCN(C(=O)NCc3ccc(OC)cc3)CC2)no1 | – | inconclusive: 11.2 µM [inhibitor, single point] | –
O=C(CCc1conc1-c1ccccc1F)NCc1ccc(Cl)cc1 | inactive | – | –
COc1ccc(NC(=O)N2C[C@@H](F)C[C@H]2C(=O)N2CCCCC2)c(OC)c1 | – | – | inactive: 49.9%
O=C(NC1CCCN(c2cc(-c3ccccc3)[nH]n2)C1)c1ccsc1 (configuration not stated) | – | inconclusive: 2.51 µM [inhibitor, single point] | –
CCCCN(C)C(=O)C(Cc1ccccc1)NS(=O)(=O)c1ccc2c(c1)c(=O)n(C)c(=O)n2C (configuration not stated) | – | inconclusive: 7.08 µM [inhibitor, single point] | –
Cc1oc(-c2cccc(Cl)c2)nc1CN1CCCC(C(=O)NCc2ccc(F)cc2)C1 (configuration not stated) | – | inconclusive: 17.8 µM [inhibitor, single point] | –
O=C(NC1CCCC1)C1c2ccccc2C(=O)N(C2CCCC2)C12CCCCC2 (configuration not stated) | – | active: 10 µM | –
Cc1c(C(=O)NC2CC(c3nnc(CO)n3C3CC3)C2)n(C)c2c(C)cccc12 (configuration not stated) | inactive | – | –
O=C(N[C@H](C1CCNCC1)C1CC(O)C1)c1cccc(=O)[nH]1 (some centres not stated) | – | – | inactive: -1.26%
O=C(NCC1CCN(c2cc(-c3ccc(F)cc3)[nH]n2)CC1)c1c[nH]c2ccccc12 | – | – | inactive: -4.99%
CCn1ccc(C(=O)N[C@@H]2CN(Cc3ccccc3)C[C@H]2CN(C)C)n1 | – | inconclusive: 7.08 µM [inhibitor, partial curve, poor fit] | –
C#C[C@H]1CN2CC[C@H]1C[C@@H]2CNC(=O)Nc1cccc(C(F)(F)F)c1 | – | inconclusive: 2.51 µM [inhibitor, partial curve, poor fit] | –
O=C([C@@H]1C[C@H](F)CN1C(=O)c1cccc(Br)c1)N1CCCCC1 | – | – | inactive: 42.7%
CN(Cc1ccccc1)C(=O)c1cnc2c(c1)N(C(=O)CCc1ccccc1)CCC2 | – | inconclusive: 11.2 µM [inhibitor, partial curve, poor fit] | –
CCc1cnc(C)nc1N1CCOC(c2ccc(Cl)cc2)C1 (configuration not stated) | – | inconclusive: 5.01 µM [inhibitor, partial curve, poor fit] | –
COc1ccccc1OCCNC(=O)C1CCCN(C(=O)c2ccccc2)CCC(=O)NCC1 (configuration not stated) | – | inconclusive: 4.47 µM [inhibitor, partial curve, poor fit] | –
